# Measurements as given in PubChem BioAssay AID1671193 (National Center for Advancing Translational Sciences (NCATS), 2021).
# In all, about 150,000 compounds went through this assay and about 180 (0.12%) were called active. The inconclusive results got no clear call from the source; some entries with a clear call stand among them for comparison. The call rests on the fitted dose curve; in most records, active means well fitted cell-killing curve with a large enough effect; inconclusive means small, poorly fitted or top-dose-only effect, or effect the other way; inactive means flat fitted curve, though single readings scatter. Potencies beside an inconclusive call are fits to weak or partial responses and may not hold up.
# Experiment: GF-AFC viability counterscreen for inhibitors of alpha-synuclein gene (SNCA) expression; further: nearly all actives have a fitted effect of over 30% in size
# Settings: HEK-293-SNCA-luc viability, GF-AFC fluorescence, 24 h; series mostly up to 57.1 µM
# Method in brief: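 Cytotoxicity counterscreen: after 24 h compound treatment of genome-edited SNCA-luciferase HEK-293 cells, live-cell protease substrate GF-AFC read by fluorescence after 30 min; activity scaled between DMSO (0%) and medium-only (-100%), curves Hill-fitted.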
# Potency means the concentration at half of the fitted maximal effect; tags describe the fitted curve by direction and shape.
row,Compound,Potency
1,Cc1noc(C)c1CC(=O)N1CCC2(CC1)CC(N(Cc1ccccc1)C1CC1)CCO2 (stereo not given),"inconclusive: 3.98 µM [rising, full curve]"
2,COc1cccc(CC(=O)N2CCCN(c3cc(-c4ccccc4)[nH]n3)CC2)c1,inactive
3,CCc1nc(N2CCC(n3c(=O)[nH]c4ccccc43)CC2)c2cnn(C)c2n1,"inconclusive: 20 µM [cytotoxic, single point]"
4,O=C(c1ccc2ccccc2n1)N1CCCC(Cc2noc(C3CC3)n2)C1 (stereo not given),"inconclusive: 17.8 µM [cytotoxic, single point]"
5,COc1ccc(NC(=O)CN2C(=O)NC3(CCC(C(C)(C)C)CC3)C2=O)c(OC)c1 (stereo not given),inactive
6,CCOc1ccc(NC(=O)N2[C@@H]3CC[C@H]2CC(NC(=O)c2ccc(F)cc2)C3)cc1 (stereo not given in full),inactive
7,O=C(Nc1ccc(F)cc1)c1ccc2nnc(-c3ccc(Cl)cc3)n2c1,inactive
8,O=C1[C@@H]2C[C@@H](O)CN2C2(CN(Cc3ccccn3)C2)C(=O)N1Cc1cccc(Cl)c1,inactive
9,CN(Cc1ccccc1)C(=O)CCNc1c(-c2cccc(F)c2)nc2cnccn12,"inconclusive: 28.2 µM [rising, single point]"
10,CC(C)c1ccc(Cn2ccc3c4c(N)nc(NC5CC5)nc4ccc32)cc1,"inconclusive: 30.4 µM [cytotoxic, single point]"
11,O=C(COc1ccccc1)N1CCC(c2n[nH]c(=O)n2Cc2ccc(F)cc2)CC1,inactive
12,COc1ccc(CCNC(=O)c2cc(=O)[nH]c3ccc(S(=O)(=O)N4CCCCC4C)cc23)cc1OC (stereo not given),"inconclusive: 39.8 µM [cytotoxic, single point]"
13,COc1cc(CNC(=O)CN2CCCc3nc(C4CC4)ncc3C2=O)cc(OC)c1,"inconclusive: 2.51 µM [rising, partial curve, poor fit]"
14,O=C1c2cc(N3CCOCC3)nc(-c3ccc(F)cc3)c2CN1CC1CC1,inactive
15,CCCN(CC1CCOC1)C(=O)c1cc(Cl)ccc1F (stereo not given),"inconclusive: 4.47 µM [rising, single point]"
16,Fc1ccc(CN2CC[C@H](c3nc4ccc(C(F)(F)F)cc4[nH]3)C2)cc1F,active: 31.6 µM
17,Cc1cc(=O)oc2cc(OCC(=O)NC3CCCc4c3[nH]c3ccccc43)ccc12 (stereo not given),"inconclusive: 3.16 µM [cytotoxic, full curve, poor fit]"
18,Cc1ccc(SCC(=O)Nc2ccc3oc(-c4ccccc4F)nc3c2)cc1,"inconclusive: 1.12 µM [cytotoxic, full curve]"
19,CCn1ncc(N2CCCC(CC(=O)N3CCCCCC3)C2)cc1=O (stereo not given),inactive
20,Cc1ccc(NC(=O)c2cc3c(N4CCSCC4)nc(C)cn3n2)c(C)c1,inactive
21,CC1=C[C@@H](CNC(=O)Nc2ccc(F)cc2)[C@H](C(C)C)C[C@H]1Cc1nc2c(C)cccc2[nH]1,"inconclusive: 20 µM [cytotoxic, partial curve, poor fit]"
22,CCOC(=O)CNC(=O)c1cc2c(=O)n3cccc(C)c3nc2n1C,"inconclusive: 25.1 µM [rising, single point]"

row,Compound,Potency
1,Cn1c(CNC(=O)c2cccc(C3CCNC3)c2)nc2ccccc21 (stereo not given),"inconclusive: 0.891 µM [cytotoxic, full curve, poor fit]"
2,COc1cccc(-c2ccc(CN3CCCC(N[S+](=O)([O-])c4ccc(C)cc4)C3)cc2)c1 (stereo not given),"inconclusive: 8.91 µM [cytotoxic, single point]"
3,COc1ccc2nc(C[C@@H]3C[C@@H](C(C)C)[C@H](CNCc4ccccc4OC)C=C3C)[nH]c2c1,"inconclusive: 25.1 µM [cytotoxic, single point]"
4,Cc1cc(Br)cc2c1N(Cc1ccccc1OC(C)C)C(=O)C2=O,"inconclusive: 28.2 µM [cytotoxic, single point]"
5,O=C(NC1CCN(c2cc(-c3ccc(F)cc3)[nH]n2)C1)c1ccc2[nH]ccc2c1 (stereo not given),inactive
6,O=C(c1cc(-c2ccc(F)cc2)nc2ccccc12)N1CCC(Cc2nncn2CC2CC2)CC1,inactive
7,Cc1ccc2c(n1)N(C)[C@H](CO)CCN(Cc1ccc(C(F)(F)F)cc1)C2,"inconclusive: 56.2 µM [cytotoxic, single point]"
8,C[C@H]1[C@@H]2[C@H]3OC(=O)[C@@H](C)[C@@H]3CC[C@@]2(C)CC[C@@H]1NC(=O)c1ccccn1,inactive
9,COc1ccc(F)cc1-c1cccc(C(=O)NCCNC(=O)c2ccccc2F)c1,inactive
10,COc1ccc(NC(=O)CCc2cc3cc(C)ccc3[nH]c2=O)c(OC)c1,inactive
11,CCN(C1CCOCC1)C1CN(C(=O)c2ccsc2)C1,"inconclusive: 8.91 µM [rising, single point]"
12,COc1ccc(CN2Cc3[nH]cnc3C[C@H]2C(=O)NCc2ccc(Cl)cc2)c2ccccc12,"inconclusive: 39.8 µM [cytotoxic, single point]"
13,O=C1CCCCC(C(=O)NCc2ccc3c(c2)OCO3)N1 (stereo not given),inactive
14,CC(=O)Nc1ccc(-c2c(C3CC3)nn(-c3cccc(C)c3)c2OC(C)=O)cc1,"inconclusive: 6.31 µM [cytotoxic, single point]"
15,O=c1c(-c2cccc(Cl)c2)nc2cncnc2n1-c1ccccc1,"inconclusive: 39.8 µM [cytotoxic, single point]"
16,Cc1ccc(NC(=O)N2CC3CCCN3c3ccccc32)cc1Cl (stereo not given),"inconclusive: 17.8 µM [cytotoxic, partial curve]"
17,COc1ccc(C(=O)N2CCCn3nc(C)c(-c4ccccc4Oc4ccccc4)c32)cn1,"inconclusive: 39.8 µM [cytotoxic, partial curve, poor fit]"
18,COC(=O)[C@@H]1Cc2ncn(Cc3ccccc3)c2CN1S(=O)(=O)Cc1ccccc1,"inconclusive: 12.6 µM [cytotoxic, partial curve, poor fit]"
19,CC(C)C[C@@H]1N[C@H](C(=O)N2CCOCC2)Cc2c[nH]c3cccc1c23,inactive
20,CC1=C[C@@H](CNC(=O)C(C)(C)C)[C@H](C(C)C)C[C@H]1Cc1nnc(-c2ccncc2)o1,"inconclusive: 11.2 µM [cytotoxic, partial curve, poor fit]"
21,Clc1ccc(-c2cc3ncc4c(n3n2)-c2ccccc2OC4)cc1,"inconclusive: 3.98 µM [cytotoxic, full curve, poor fit]"
22,NCc1ccc(-c2ccc(F)cc2F)cc1,"inconclusive: 56.2 µM [cytotoxic, single point]"

row,Compound,Potency
1,Cc1ccc(-c2nnc(C3CN(C(=O)c4n[nH]c5ccccc45)CC34CCOCC4)o2)cc1 (stereo not given),"inconclusive: 10 µM [cytotoxic, partial curve, poor fit]"
2,CC1=C[C@@H](CNCc2ccccn2)[C@H](C(C)C)C[C@H]1Cc1nnc(-c2ccc(N(C)C)cc2)o1,"inconclusive: 39.8 µM [cytotoxic, single point]"
3,COc1ccc(C(=O)N[C@@H]2CCC[C@@H]2C(=O)NCc2cc(F)cc(F)c2)cn1,inactive
4,O=C(NCc1ccccc1)c1cnc2n1CCN(CCCc1ccccc1)CC2,inactive
5,N#Cc1ccccc1NC(=O)CSc1nc(-c2ccccc2)cc(C(F)(F)F)c1C#N,"inconclusive: 12.6 µM [rising, partial curve]"
6,COCC1CN(C(=O)COc2ccc(Cl)cc2C)CC12CCNCC2 (stereo not given),"inconclusive: 3.98 µM [cytotoxic, full curve, poor fit]"
7,COc1cccc(CNC(=O)C2CCCN2C(=O)c2cccc(-c3cccc(OC)c3)c2)c1 (stereo not given),"inconclusive: 7.08 µM [cytotoxic, single point]"
8,Cn1cc(CN2C[C@@H]3C[C@H](C2)c2ccc(NS(=O)(=O)c4cccc(F)c4)c(=O)n2C3)c2ccccc21,inactive
9,CC1(C(=O)NC2CC2)CCCc2cnc(Nc3ccccc3)nc21 (stereo not given),"inconclusive: 17.8 µM [cytotoxic, partial curve, poor fit]"
10,CN(C)CCOc1ccc(C(=C(CCCl)c2ccccc2)c2ccccc2)cc1,"inconclusive: 24.1 µM [cytotoxic, partial curve, poor fit]"
11,CC1(C)CC2C3=CCC4[C@@]5(C)CC[C@H](OC6OCC(O)C(OC7OC(CO)C(O)C(O)C7O)C6O)C(C)(C)C5CC[C@@]4(C)[C@]3(C)C[C@H](O)[C@@]2(CO)[C@H](OC(=O)c2ccccc2)C1 (stereo not given in full),"inconclusive: 2.01 µM [rising, single point]"
12,CCS(=O)(=O)n1nc(-c2ccco2)nc1NCc1ccc(C(C)C)cc1,"inconclusive: 5.01 µM [rising, partial curve, poor fit]"
13,COc1cccc(NC(=O)C2CN(C3CCCC3)C(=O)N2)c1 (stereo not given),"inconclusive: 5.62 µM [cytotoxic, single point]"
14,O=C(NCc1ccccc1)c1ccccc1OC1CN(Cc2cccnc2Cl)C1,inactive
15,CC1CCC/C=C/C(=O)c2c(O)cc(O)cc2CC(=O)O1 (stereo not given),"inconclusive: 21.2 µM [cytotoxic, partial curve, poor fit]"
16,CC(NC(=O)c1ccc(OC2CCN(S(=O)(=O)N(C)C)CC2)cc1)c1cccs1 (stereo not given),inactive
17,COCc1cc(C)nc2sc3c(c12)NC(c1ccccc1C(=O)O)N(c1cccc(C(F)(F)F)c1)C3=O (stereo not given),"inconclusive: 20 µM [rising, partial curve]"
18,COc1ccc(F)cc1-c1cccc(C(=O)NCCNC(=O)NC2CCCC2)c1,"inconclusive: 3.98 µM [cytotoxic, single point]"
19,Cc1ccc(-n2nc(-c3c(C)nc4scc(CC(=O)NCC(C)C)n4c3=O)cc2C)c(C)c1,inactive
20,COc1nccnc1NC1CCN(C(=O)c2ccccc2)CC1,inactive
21,O=C(N[C@@H]1CCN(Cc2ccc3nsnc3c2)C[C@H]1O)c1cnccn1,inactive
